Measured values taken from PubChem BioAssay AID588579 (National Center for Advancing Translational Sciences (NCATS), 2011).
In all, about 400,000 compounds went through this assay and about 2,200 (0.55%) were called active. Inconclusive means that the source gave no clear call. Such entries were picked first, then a sample of the others. Calls follow the shape of the dose curve; as a rule, active = well fitted inhibition curve with a large enough effect; inconclusive = small, poorly fitted or top-dose-only effect, or another doubt; inactive = no such curve, though single readings can be large or run the other way. Potencies beside an inconclusive call are fits to weak or partial responses and may not hold up.

Each compound was assayed against DNA polymerase kappa (Homo sapiens) (UniProt Q9UBT6) (assay: qHTS for Inhibitors of Polymerase Kappa). Settings: purified Pol kappa, fluorescent DNA synthesis assay, 10 min; series mostly up to 107 µM; activity, negative = inhibition: at the top concentration.
Procedure, shortened: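 Enzyme at 10 nM met test compounds for 15 min at room temperature. Substrate addition (50 nM final) began the reaction, which was monitored by fluorescence at 0 and 10 min.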
% is scaled to controls: 0 for no effect and ±100 for the full control effect; potency is read from the fitted curve at half-maximal effect; tags tell the direction and shape of the fitted curve.

UniProt Q9UBT6, sequence (Q9UBT6 whole entry, looked up): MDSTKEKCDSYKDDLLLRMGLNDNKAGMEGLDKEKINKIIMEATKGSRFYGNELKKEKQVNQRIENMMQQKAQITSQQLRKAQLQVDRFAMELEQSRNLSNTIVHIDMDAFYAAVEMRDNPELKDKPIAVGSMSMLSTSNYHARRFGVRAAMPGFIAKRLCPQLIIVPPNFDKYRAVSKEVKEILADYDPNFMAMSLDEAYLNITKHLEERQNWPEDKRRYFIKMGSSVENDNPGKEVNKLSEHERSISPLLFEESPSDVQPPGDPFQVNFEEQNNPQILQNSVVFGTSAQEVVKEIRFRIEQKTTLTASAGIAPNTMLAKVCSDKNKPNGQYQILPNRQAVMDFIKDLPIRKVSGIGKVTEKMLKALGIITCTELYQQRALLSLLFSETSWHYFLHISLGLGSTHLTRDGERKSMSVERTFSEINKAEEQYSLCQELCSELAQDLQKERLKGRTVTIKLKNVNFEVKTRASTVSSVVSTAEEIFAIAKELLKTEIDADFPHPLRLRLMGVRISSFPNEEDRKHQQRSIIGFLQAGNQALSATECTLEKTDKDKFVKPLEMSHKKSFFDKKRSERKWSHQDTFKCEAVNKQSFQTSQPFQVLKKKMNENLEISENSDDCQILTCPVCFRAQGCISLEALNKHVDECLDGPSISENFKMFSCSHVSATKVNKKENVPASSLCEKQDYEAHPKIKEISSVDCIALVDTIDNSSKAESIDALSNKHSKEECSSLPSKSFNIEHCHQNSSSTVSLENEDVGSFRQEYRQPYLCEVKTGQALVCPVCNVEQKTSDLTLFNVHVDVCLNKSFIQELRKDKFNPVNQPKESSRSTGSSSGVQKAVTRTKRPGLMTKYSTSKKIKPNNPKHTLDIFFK

Potency, active:
Cc1ccn2cc(-c3ccc(O)c(O)c3)nc2c1 20 µM
COc1ccc(C(CC(=O)N2CCCC(C)C2)c2c(OC)cc(OC)c3c(-c4ccccc4)cc(=O)oc23)cc1 (stereo not drawn) 79.4 µM
CCS(=O)(=O)C1=NN2C(=N)/C(=C\c3ccc(SCc4ccco4)o3)C(=O)N=C2S1 28.2 µM
Cc1cc(C)c(S(=O)(=O)/N=C2\C=C(Nc3ccc(C(=O)O)cc3)C(=O)c3ccccc32)c(C)c1 89.1 µM
O=C(O)c1ccccc1NS(=O)(=O)c1ccc(N/N=C/c2ccc(O)c(O)c2)c([N+](=O)[O-])c1 31.6 µM
O=C1CSC(=S)N1/N=C/c1ccc(O)c(O)c1O 0.708 µM
COc1cccc2c1C(=O)c1c(O)c3c(c(O)c1C2=O)C[C@@](O)(C(=O)CO)C[C@@H]3O[C@H]1C[C@H](N)[C@H](O)[C@H](C)O1 26.7 µM
O=C(O)c1cccc(-n2cccc2/C=C2\NC(=O)N(Cc3ccc(F)cc3)C2=O)c1 79.4 µM

Potency, inconclusive:
O=C(CN1CCCCCC1)Nc1ccccc1 89.1 µM [inhibitor, single point]
CCCn1c2ccccc2c2cnn(CC(=O)NCCc3ccc(OCC)c(OCC)c3)c(=O)c21 89.1 µM [inhibitor, single point]
CC[C@H](C)/C=C/C1=CC2=C(Cl)C(=O)[C@@]3(C)OC(=O)C(C(=O)[C@H](C)[C@@H](C)O)=C3C2=CO1 56.2 µM [inhibitor, partial curve, poor fit]
CCCC(C)c1nc(C(N)=O)c2[nH]c(=O)n(-c3ccc(OC)cc3OC)c2n1 (stereo not drawn) 89.1 µM [inhibitor, single point]
Cc1ccc(S(=O)(=O)n2ccc3c(OCCOCCSCC(NC(=O)OC(C)(C)C)C(=O)O)cccc32)cc1 (stereo not drawn) 89.1 µM [inhibitor, single point]
Nc1ccc(C(=O)Nc2ccc3c(O)cc(S(=O)(=O)O)cc3c2)cc1 89.1 µM [inhibitor, single point]
Cc1ccsc1/C=N/n1c(-c2cc(-c3ccccc3)n[nH]2)n[nH]c1=S 89.1 µM [inhibitor, single point]
O=C1/C(=C\c2ccccn2)SC(=S)N1c1ccc(S(=O)(=O)Nc2nccs2)cc1 89.1 µM [inhibitor, single point]
Cc1cc(C(=O)COC(=O)Cc2ccc(Cl)cc2)c(C)n1C 100 µM [inhibitor, single point]
CCOC(=O)C1=C(C)N(C[C@@H]2CC[C@@H](Cc3ccc(-c4ccccc4)cc3)O2)C(=O)NC1c1ccc(SCc2ccco2)c([N+](=O)[O-])c1 (stereo partly drawn) 56.2 µM [inhibitor, partial curve, poor fit]
Cc1ccccc1Nc1nnc(SCC(=O)NCc2ccco2)s1 89.1 µM [inhibitor, partial curve, poor fit]
O=C(C1=C[C@H](c2ccccc2)C[C@H](OCc2ccc(CO)cc2)O1)N1CCN(Cc2ccccc2)CC1 100 µM [inhibitor, single point]
CC(C)NC(=O)c1cc(-c2ccco2)nn1-c1ccc(Cl)cc1 89.1 µM [inhibitor, single point]
COc1ccc(/C=N\NC(=O)c2ccc(=O)[nH]n2)cc1O 100 µM [inhibitor, single point]
CCOC(=O)/C(C#N)=C/c1ccc(-c2ccccc2)o1 89.1 µM [inhibitor, single point]
CCCNCc1cc(Br)ccc1OCC(=O)NCCc1ccccc1 100 µM [inhibitor, single point]
Cc1nc2cc(N3CCOCC3)c(NC(=O)C3CC3)cc2c(=O)n1Cc1ccccc1 100 µM [inhibitor, single point]
Cc1cccc(NC(=O)CCc2nc3sc4c(c3c(=O)[nH]2)CCCC4)n1 89.1 µM [inhibitor, single point]
Cc1ccc(C)c(OC(C)C(=O)Nc2ccc(S(=O)(=O)Nc3nccs3)cc2)c1 (stereo not drawn) 89.1 µM [inhibitor, partial curve, poor fit]
COc1ccccc1Nc1c2c(nc3ccc(NC(=O)c4ccc(OC)c(OC)c4)cc13)CCCC2 56.2 µM [inhibitor, partial curve, poor fit]
Cc1coc2c(C)c3oc(=O)c(CCC(=O)N[C@@H](C)C(=O)N[C@@H](Cc4ccccc4)C(=O)O)c(C)c3cc12 28.2 µM [inhibitor, partial curve, poor fit]
COc1ccc(C(=O)/C=C/Nc2ccc(S(=O)(=O)Nc3cc(OC)nc(OC)n3)cc2)c(OC)c1 89.1 µM [inhibitor, single point]
O=C(c1cc(-c2ccco2)nc2ccccc12)N1CCCC(C(F)(F)F)C1 (stereo not drawn) 63.1 µM [inhibitor, partial curve, poor fit]
Cc1cc(Nc2ccccc2C(=O)O)n(-c2ccc([N+](=O)[O-])cc2)n1 70.8 µM [inhibitor, partial curve, poor fit]
O=C(c1cc(C(F)(F)F)cc(C(F)(F)F)c1)N1CCC2(CC1)CN(c1ccccn1)C2 28.2 µM [inhibitor, single point]
O=[N+]([O-])c1cc2no[n+]([O-])c2cc1N1CCCCC1 63.1 µM [inhibitor, partial curve, poor fit]
COc1ccc2nc(NC(=O)c3nc(S(=O)(=O)Cc4ccccc4F)ncc3Cl)sc2c1 89.1 µM [inhibitor, single point]
COC(=O)\C(C(C)=O)=C(/C=C/C=C/N(C)C)N(C)C 89.1 µM [inhibitor, single point]
Cc1ccc(C)c2[nH]c(=O)c(CCNC(=O)c3ccc(Br)o3)cc12 89.1 µM [inhibitor, single point]
O=C(Nc1ccc(S(=O)(=O)Nc2nccs2)cc1)c1ccc(N2C(=O)c3ccccc3C2=O)cc1 89.1 µM [inhibitor, partial curve, poor fit]
O=C(O)CCN1C(=O)/C(=C\c2cccc(Oc3ccccc3)c2)SC1=S 89.1 µM [inhibitor, single point]
N#CC1=C(N)SC(N)=C(C#N)C1c1cccc(Oc2ccccc2)c1 89.1 µM [inhibitor, single point]
O=C(CCc1ccc(O)cc1)N/N=C/c1coc2ccccc2c1=O 100 µM [inhibitor, single point]
CCCc1nc2c(c(=O)c3ccccc3n2C)c(=O)n1-c1cc(C)cc(C)c1 89.1 µM [inhibitor, partial curve, poor fit]
Cn1ncc(C#N)c1NC(=O)c1cc(-c2ccccc2Cl)on1 89.1 µM [inhibitor, single point]
Cc1ccc(-n2nc3ccc(NC(=O)/C=C/c4ccco4)cc3n2)cc1C 89.1 µM [inhibitor, single point]

activity, negative = inhibition, inactive:
Cc1ccc(NC(=O)CCNS(=O)(=O)c2ccc3c(c2)CCN3C(=O)C2CC2)c(Cl)c1 -3.73% [at 60.1 µM]
CN(C)/[N+]([O-])=N/Oc1cc(O/[N+]([O-])=N/N2CCCC2CO)c([N+](=O)[O-])cc1[N+](=O)[O-] (stereo not drawn) -11.8%
NS(=O)(=O)c1ccc(CCNc2nc3c(-c4cccc(F)c4)nnn3c3ccccc23)cc1 -6.31%
N#C/C(=C\c1ccc(N2CCCCC2)o1)C(=O)Nc1cccc(Br)c1 -3.14%
COc1ccc(S(=O)(=O)N2CCC(C(=O)N[C@H](C(=O)NCc3ccncc3)C(C)C)CC2)cc1 1.95%
O=S(=O)(O)c1ccc(NN=Cc2ccccc2O)cc1 -4.52%
CNC(CC(C)C)C(=O)NC1C(=O)NC(CC(N)=O)C(=O)NC2C(=O)NC3C(=O)NC(C(=O)NC(C(=O)O)c4cc(O)cc(O)c4-c4cc3ccc4O)C(O)c3ccc(c(Cl)c3)Oc3cc2cc(c3OC2OC(CO)C(O)C(O)C2OC2CC(C)(N)C(O)C(C)O2)Oc2ccc(cc2Cl)C1O (stereo not drawn) -0.762%
O=C(O)c1cc(N/N=C/c2ccncc2)ccc1Cl -13.8%
CCCN(CCC)C(=O)[C@@H](CCC(=O)O)NC(=O)c1ccccc1 0.926% [at 19.4 µM]
Cc1ccc2c(=O)cc(C(=O)Nc3ccc(S(=O)(=O)N4CCCCC4)cc3)oc2c1 7.46%
Cc1cc(NC(=O)CSc2ccc(-c3nc4cc(C)c(C)cc4[nH]3)cn2)no1 8.33%
Cc1ccc(C(=O)Nc2nnc(S(=O)(=O)N(C)Cc3ccc(F)cc3)s2)cc1 4.01%
Cc1ccc(-c2csc3nnc(SCC(=O)Nc4nsc(-c5ccccc5)n4)n23)cc1 0%
COc1cc2oc(=O)cc(-c3cccc(-c4ccc(C(C)=O)cc4)c3)c2c(OC)c1OC -10.8% [at 60.1 µM]
O=C(Nc1cccc(F)c1)N1CCCC2(CCN(C(=O)c3ccncc3)CC2)C1 0.0963% [at 60.1 µM]
O=C(Nc1cccc(C(F)(F)F)c1)Nc1cc(Cl)ccc1C(=O)O 11.8% [at 60.1 µM]
Cc1nc(SCC(=O)Nc2ccccc2Cl)c2c(C)c(C)sc2n1 -19.8%
Cc1nn(-c2nc3ccccc3[nH]2)c(=O)c2ccccc12 -0.516%
CC(C)(C)c1ccc(-c2nc(SCCOc3ccc(Cl)cc3)n3[nH]c(=O)cc3n2)cc1 -19.3%
